Some of the results follow. Many values rest on one well or one pass, so single values are uncertain.
Columns and labels:
Assay in all cases: cell count relative to DMSO control; melanoma cells; higher = more viable cells
Conditions in all cases: library dose: standard library concentration; 72 h
SkMel28 = system: SkMel28
SkMel2 = system: SkMel2
SkMel30 = system: SkMel30
SkMel5 = system: SkMel5
UACC257 = system: UACC257
UACC62 = system: UACC62
WM115 = system: WM115
WM1716 = system: WM1716
WM1745 = system: WM1745
WM3526 = system: WM3526
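Further: cells treated in 1,536-well plates, then fixed and DAPI-stained, with nuclei counted from automated high-throughput microscope images.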

SMILES | cell count (SkMel28) | cell count (SkMel2) | cell count (SkMel30) | cell count (SkMel5) | cell count (UACC257) | cell count (UACC62) | cell count (WM115) | cell count (WM1716) | cell count (WM1745) | cell count (WM3526)
C[As](C)SC[C@H](NC(=O)CC[C@H](N)C(=O)O)C(=O)NCC(=O)O [Darinaparsin] + CC(C)CCN1c2nc(Nc3cc(F)c(O)c(F)c3)ncc2N(C)C(=O)C1C [BID1870] (first compound 2 µM, partner dose 1 µM) | 58.1% | 69% | 64.5% | 54.8% | 86.3% | 55.2% | 89.1% | 76.5% | 90.2% | 60.9%
Cn1cc(C2=C(c3cn(C4CCN(Cc5ccccn5)CC4)c4ccccc34)C(=O)NC2=O)c2ccccc21 [Enzastaurin] + CC(C)C[C@H](NC(=O)[C@H](Cc1ccccc1)NC(=O)c1cnccn1)B(O)O [Bortezomib] (first compound 4 µM, partner dose 0.005 µM) | 22.4% | 16.2% | 22.6% | 19% | 70.1% | 53.5% | 17.4% | 21.6% | 19.1% | 22.7%
Cn1cc(C2=C(c3cn(C4CCN(Cc5ccccn5)CC4)c4ccccc34)C(=O)NC2=O)c2ccccc21 [Enzastaurin] + C[As](C)SC[C@H](NC(=O)CC[C@H](N)C(=O)O)C(=O)NCC(=O)O [Darinaparsin] (first compound 4 µM, partner dose 2 µM) | 63.7% | 60.4% | 74.1% | 72% | 72.1% | 57.1% | 83.4% | 69.9% | 52.3% | 77.3%
C[As](C)SC[C@H](NC(=O)CC[C@H](N)C(=O)O)C(=O)NCC(=O)O [Darinaparsin] + Cc1nc(Nc2ncc(C(=O)Nc3c(C)cccc3Cl)s2)cc(N2CCN(CCO)CC2)n1 [dasatanib] (first compound 2 µM, partner dose 0.02 µM) | 56.9% | 86.7% | 74.5% | 47.2% | 54.8% | 80.7% | 63.9% | 42.4% | 31.4% | 65.6%
Cn1cc(C2=C(c3cn(C4CCN(Cc5ccccn5)CC4)c4ccccc34)C(=O)NC2=O)c2ccccc21 [Enzastaurin] + C[C@@H]1CCN(C(=O)CC#N)C[C@@H]1N(C)c1ncnc2[nH]ccc12 [CP690550] (first compound 4 µM, partner dose 5 µM) | 120% | 78.4% | 110% | 108% | 113% | 104% | 148% | 81.8% | 66.8% | 90.7%
C[C@]12O[C@H](C[C@]1(O)CO)n1c3ccccc3c3c4c(c5c6ccccc6n2c5c31)CNC4=O [Lestaurtinib] + CC(C)(C)c1cnc(CSc2cnc(NC(=O)C3CCNCC3)s2)o1 [SNS-032] (first compound 0.02 µM, partner dose 0.05 µM) | 57.5% | 0.38% | 88.1% | 46.8% | 87.4% | 68.9% | 77.1% | 81.6% | 63.3% | 67.9%
C[C@]12O[C@H](C[C@]1(O)CO)n1c3ccccc3c3c4c(c5c6ccccc6n2c5c31)CNC4=O [Lestaurtinib] + C=CCNC1=C2C[C@@H](C)C[C@H](OC)[C@H](O)[C@@H](C)/C=C(\C)[C@H](OC(N)=O)[C@@H](OC)/C=C\C=C(/C)C(=O)NC(=CC1=O)C2=O [Tanespimycin] (first compound 0.02 µM, partner dose 0.01 µM) | 51.2% | 82.2% | 66.9% | 39.5% | 87.4% | 64.9% | 24.9% | 94.6% | 58.9% | 64.9%
Cn1cc(C2=C(c3cn(C4CCN(Cc5ccccn5)CC4)c4ccccc34)C(=O)NC2=O)c2ccccc21 [Enzastaurin] + CS(=O)(=O)c1ccc(C(=O)Nc2ccc(Cl)c(-c3ccccn3)c2)c(Cl)c1 [vismodegib] (first compound 4 µM, partner dose 5 µM) | 94.8% | 57.1% | 88.9% | 99.7% | 103% | 102% | 123% | 97.3% | 76.8% | 82.5%
Cn1cc(C2=C(c3cn(C4CCN(Cc5ccccn5)CC4)c4ccccc34)C(=O)NC2=O)c2ccccc21 [Enzastaurin] + Cc1cc(Nc2cc(N3CCN(C)CC3)nc(/C=C/c3ccccc3)n2)n[nH]1 [ENMD2076] (first compound 4 µM, partner dose 0.2 µM) | 45.7% | 52.7% | 89.4% | 61.1% | 72.1% | 45.2% | 72.4% | 71.4% | 11.7% | 78.2%
N.N.[Cl][Pt][Cl] [cisplatin] + CC(=O)c1c(C)c2cnc(Nc3ccc(N4CCNCC4)cn3)nc2n(C2CCCC2)c1=O [palbociclib] (first compound 8 µM, partner dose 0.2 µM) | 56.9% | 79.9% | 76.7% | 62.9% | 71% | 65.8% | 83.2% | 45.9% | 83.3% | 42.2%
Cn1cc(C2=C(c3cn(C4CCN(Cc5ccccn5)CC4)c4ccccc34)C(=O)NC2=O)c2ccccc21 [Enzastaurin] + Cc1cc(N2CCOCC2)cc2[nH]c(-c3c(NC[C@@H](O)c4cccc(Cl)c4)cc[nH]c3=O)nc12 [BMS536924] (first compound 4 µM, partner dose 1 µM) | 74.5% | 74.4% | 95.9% | 70% | 104% | 74.5% | 111% | 90.1% | 41.6% | 85.3%
C[As](C)SC[C@H](NC(=O)CC[C@H](N)C(=O)O)C(=O)NCC(=O)O [Darinaparsin] + O=C(Nc1ccccc1)c1cc([N+](=O)[O-])ccc1Cl [GW9662] (first compound 2 µM, partner dose 10 µM) | 53% | 85% | 62.3% | 47% | 62.2% | 73.9% | 63.2% | 49.2% | 80.8% | 67.2%
Cn1cc(C2=C(c3cn(C4CCN(Cc5ccccn5)CC4)c4ccccc34)C(=O)NC2=O)c2ccccc21 [Enzastaurin] + CO[C@H]1C[C@@H]2CC[C@@H](C)[C@@](O)(O2)C(=O)C(=O)N2CCCC[C@H]2C(=O)O[C@H]([C@H](C)C[C@@H]2CC[C@@H](OCCO)[C@H](OC)C2)CC(=O)[C@H](C)/C=C(\C)[C@@H](O)[C@@H](OC)C(=O)[C@H](C)C[C@H](C)/C=C/C=C/C=C/1C [everolimus] (first compound 4 µM, partner dose 0.1 µM) | 68.8% | 76.5% | 74.7% | 77.6% | 127% | 62.9% | 84.7% | 85.4% | 89.8% | 99.2%
C[As](C)SC[C@H](NC(=O)CC[C@H](N)C(=O)O)C(=O)NCC(=O)O [Darinaparsin] + COc1cc(Nc2ncc(F)c(Nc3ccc4c(n3)NC(=O)C(C)(C)O4)n2)cc(OC)c1OC [Tamatinib] (first compound 2 µM, partner dose 2 µM) | 87.8% | 85% | 90.3% | 56.5% | 78.5% | 98.1% | 77.6% | 74.2% | 41.3% | 70.9%
C[C@]12O[C@H](C[C@]1(O)CO)n1c3ccccc3c3c4c(c5c6ccccc6n2c5c31)CNC4=O [Lestaurtinib] + O=C(CCCCCCC(=O)Nc1ccccc1)NO [vorinostat] (first compound 0.02 µM, partner dose 0.4 µM) | 50.6% | 80.8% | 95.9% | 57.7% | 85.2% | 78.4% | 75.6% | 95.5% | 61.7% | 66.6%
Cn1cc(C2=C(c3cn(C4CCN(Cc5ccccn5)CC4)c4ccccc34)C(=O)NC2=O)c2ccccc21 [Enzastaurin] + CC(=O)O[C@@]12CO[C@@H]1C[C@H](O)[C@@]1(C)C(=O)[C@H](O)C3=C(C)[C@@H](OC(=O)[C@H](O)[C@@H](NC(=O)OC(C)(C)C)c4ccccc4)C[C@@](O)([C@@H](OC(=O)c4ccccc4)[C@H]21)C3(C)C [Docetaxel] (first compound 4 µM, partner dose 0.0005 µM) | 22% | 20.7% | 38.4% | 24.7% | 53.2% | 48.7% | 45.5% | 37.1% | 24.9% | 33.5%
C[As](C)SC[C@H](NC(=O)CC[C@H](N)C(=O)O)C(=O)NCC(=O)O [Darinaparsin] + C=CCn1c(=O)c2cnc(Nc3ccc(N4CCN(C)CC4)cc3)nc2n1-c1cccc(C(C)(C)O)n1 [MK1775] (first compound 2 µM, partner dose 0.1 µM) | 32.7% | 65.4% | 58.7% | 30.1% | 75.5% | 68.8% | 50% | 58.6% | 42.7% | 54.4%
Cn1cc(C2=C(c3cn(C4CCN(Cc5ccccn5)CC4)c4ccccc34)C(=O)NC2=O)c2ccccc21 [Enzastaurin] + C[C@@H](Oc1cc(-c2cnn(C3CCNCC3)c2)cnc1N)c1c(Cl)ccc(F)c1Cl [Crizotinib] (first compound 4 µM, partner dose 1 µM) | 53.6% | 50.7% | 91.9% | 72.8% | 80% | 47.4% | 49.9% | 70.6% | 28% | 70.4%
C[As](C)SC[C@H](NC(=O)CC[C@H](N)C(=O)O)C(=O)NCC(=O)O [Darinaparsin] + O=S(=O)(c1ccccc1)N(CC(F)(F)F)c1ccc(C(O)(C(F)(F)F)C(F)(F)F)cc1 [T0901317] (first compound 2 µM, partner dose 7 µM) | 68.3% | 76.1% | 80.4% | 55.8% | 82.3% | 94.3% | 80.8% | 75.1% | 83% | 73.6%
C[As](C)SC[C@H](NC(=O)CC[C@H](N)C(=O)O)C(=O)NCC(=O)O [Darinaparsin] + Cn1cncc1[C@@](N)(c1ccc(Cl)cc1)c1ccc2c(c1)c(-c1cccc(Cl)c1)cc(=O)n2C [tipifarnib] (first compound 2 µM, partner dose 0.05 µM) | 64.5% | 77.2% | 82.5% | 46.5% | 74.4% | 77.7% | 63.4% | 46.8% | 105% | 61.9%
Cn1cc(C2=C(c3cn(C4CCN(Cc5ccccn5)CC4)c4ccccc34)C(=O)NC2=O)c2ccccc21 [Enzastaurin] + CC(=O)c1c(C)c2cnc(Nc3ccc(N4CCNCC4)cn3)nc2n(C2CCCC2)c1=O [palbociclib] (first compound 4 µM, partner dose 0.2 µM) | 48.6% | 67% | 68.8% | 45.1% | 47.9% | 50.4% | 64.9% | 49.8% | 35.7% | 50.9%

— the supplement of paper PMC4604168 (melanoma cell lines)
